From PubChem BioAssay AID1347073 (National Center for Advancing Translational Sciences (NCATS), 2019)
Out of some 45,000 compounds screened, about 200 (0.44%) were called active. Inconclusive results (about 7%) are left out. Calls come from the whole dose curve; as a rule, active = well fitted activation curve with a large enough effect; inconclusive = small, poorly fitted or top-dose-only effect; inactive = no such curve, though single readings can be large or run the other way. Some of the results follow.

Experiment: qHTS of TDP-43 Inhibitors: NCGC Sytravon Library Screen; note: 0% is about no effect; nearly all actives have a fitted effect of over 55% in size
Conditions: yeast TDP-43 toxicity rescue, BacTiter-Glo growth, 24 h; series mostly up to 46.1 µM; growth rescue (activation): at the top concentration
Outline: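 TDP-43-expressing yeast, pregrown in raffinose, seeded at OD600 0.02 in galactose medium with compound for 24 hr at 30 deg C. Growth read by BacTiter-Glo luminescence, so rescue of toxicity appears as activation.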

SMILES	growth rescue (activation)	Potency
COc1cccc(OCCCn2cc(/C=C3/C(=N)N4C=C(C)SC4=NC3=O)c3ccccc32)c1	inactive: 8.1%	–
CCN(CC)CCNC(=O)/C(=N\O)c1ccccn1	inactive: -4.91%	–
CCNC(=O)NC(=O)C(C)OC(=O)c1cccnc1SC (centres undefined)	inactive: 11%	–
O=C(Nc1ccc(NC(=O)c2ccc(Cl)cc2Cl)cc1)c1cccs1	inactive: 9.32%	–
CCCN1C(=O)C(Cc2nc3ccccc3c(=O)n2-c2ccccc2)c2ccccc21 (centres undefined)	inactive: 9.99%	–
CC(=O)Nc1ccc(S(=O)(=O)Nc2ccc3c(c2)CCC3)cc1	inactive: 0.269%	–
Nc1c(Cl)ncnc1NCc1cccnc1	inactive: -9.22%	–
O=C(N/C(=C/c1ccc([N+](=O)[O-])cc1)C(=O)N1CCCC1)c1ccccc1	inactive: 5.97%	–
Cc1c(C(=O)N2CCCC2(C)C(=O)NCC(C)C)oc2ccccc12 (centres undefined)	inactive: 11.2%	–
COc1cccc(OCC(Cn2c(C)nc3ccccc32)OC(C)=O)c1 (centres undefined)	inactive: -5.33%	–
O=C(Nc1cccc(C(F)(F)F)c1)c1ccc2sc([C@@H]3O[C@H](CO)[C@H](O)[C@H](O)[C@H]3O)nc2c1	inactive: 5.51%	–
O=C(Cc1ccc([N+](=O)[O-])cc1)Nc1ccc2c(c1)OCO2	inactive: 13.7%	–
Cc1cc(C)c2cccc(N)c2n1	inactive: 1.64%	–
C=C(c1ccccc1)c1ccc(N(C)C)cc1	inactive: -6.68%	–
COc1ccccc1N1CCN(C2CC(=O)N(C)C2=O)CC1 (centres undefined)	inactive: -7.26%	–
O=c1[nH]c(C2CCCN(S(=O)(=O)c3ccccc3F)C2)nc2c1nnn2Cc1ccccc1Cl (centres undefined)	inactive: 3.43%	–
CCC1(C)Cc2[nH]c(=O)c(C#N)cc2CO1 (centres undefined)	inactive: -13.5%	–
NS(=O)(=O)c1cccc(-n2cnnn2)c1	inactive: 17.1%	–
N#C/C(=C\c1cccs1)c1nc2ccccc2[nH]1	inactive: -36.7%	–
Cc1onc(-c2ccccc2)c1C(=O)Nc1nnc(C(C)(C)C)s1	inactive: 17.7%	–
CN1CCCC1(C)C(=O)Nc1ccc(-n2cccc2)cc1 (centres undefined)	inactive: 5.42%	–
NS(=O)(=O)c1ccc(CCNC(=O)CSc2ccc(Cl)cc2)cc1	inactive: 0.49%	–

SMILES	growth rescue (activation)	Potency
CCN=c1scc(-c2cccs2)n1/N=C/c1cc(OC)ccc1O	inactive: -15.8%	–
O=C1N/C(=N/N=C/c2ccc(O)cc2)SC1Cc1ccccc1 (centres undefined)	inactive: -5.42%	–
CCn1c(SCc2cccc(C(=O)O)c2)nnc1-c1ccccc1	inactive: 2.53%	–
CC(=O)c1ccc(NC(=O)CSc2nc(C)cc(C)c2C(N)=O)cc1	inactive: -4.61%	–
COc1ccccc1CNCc1cc(OC)c(OC)c(OC)c1	inactive: -3.03%	–
COc1cc(CNCCCCO)ccc1OCc1ccccc1F	inactive: 6.98%	–
O=C(Nc1ccc(CN2CCCCC2)cc1)c1c(F)c(F)c(F)c(F)c1F	inactive: 0.039%	–
COc1ccc(NC(=O)CN(C)C2=NS(=O)(=O)c3ccccc32)cc1Cl	inactive: -4.03%	–
O=C(NCc1ccncc1)C(=O)Nc1ccc2c(c1)OCO2	inactive: 4.61%	–
COc1ccccc1C(=O)NC(=S)NNC(=O)c1sc2ccccc2c1Cl	inactive: 29.8%	–
CCN(C(=O)CSc1nnc(Nc2ccc(OC)cc2)s1)C1CCS(=O)(=O)C1 (centres undefined)	inactive: 3.59%	–
CC(=O)Nc1ccc(/C=N/NS(=O)(=O)c2cc(C)ccc2C)cc1	inactive: 9.38%	–
COc1ccccc1CNC(=O)CN1C(=O)NC(C)(c2ccc(C(C)(C)C)cc2)C1=O (centres undefined)	inactive: -14.7%	–
O=C(C1CC1)N1CCCC(c2ccc(Cl)cc2)=N1	inactive: 17.2%	–
C=CCOc1ccc(CN(C)CC(O)COc2cccc3ccccc23)cc1 (centres undefined)	inactive: -35.8%	–
CN(CCC#N)Cc1cc(=O)oc2ccc3ccccc3c12	inactive: 2.77%	–
O=C(NC1CCN(S(=O)(=O)c2ccc(F)cc2)CC1)c1ccco1	inactive: -2.41%	–
CCOC(=O)C1=C(CNCc2ccccc2Cl)NC(=O)NC1c1ccc2c(c1)OCO2 (centres undefined)	inactive: 7.55%	–
CC(C)(C)C(=O)Nc1ccc(-c2cn3cccnc3n2)cc1	inactive: 6.29%	–
Oc1cccc2c(NC(=S)Nc3ccc(OC(F)F)cc3)cccc12	inactive: 5.03%	–
CCn1c(C(=O)NCc2ccccc2Cl)cc2sc(Cl)cc21	inactive: 5.59%	–
CCOc1cc(CNCc2cccnc2)ccc1OCC(=O)NC(C)(C)C	inactive: -10.6%	–

SMILES	growth rescue (activation)	Potency
CC(c1ccon1)N(C)Cc1cn(Cc2ccccc2)nc1-c1ccc2c(c1)OCO2 (centres undefined)	inactive: -19.4%	–
CCn1c(SCc2nc3cc(OC)c(OC)cc3c(=O)[nH]2)nc2ccccc21	inactive: 8.35%	–
CC1CCCCC12NC(=O)N(CC(=O)OCc1c(F)cccc1Cl)C2=O (centres undefined)	inactive: 21.8%	–
Nc1ccc(S(=O)(=O)NC2(C(F)(F)F)NC(=O)N(c3ccccc3Cl)C2=O)cc1 (centres undefined)	inactive: 2.2%	–
O=C(NCCOc1ccccc1)[C@@H]1CCCN1C(=O)c1cccs1	inactive: -2.74%	–
O=C(O)/C=C\C(=O)Nc1ccc(Oc2ccc(Br)cc2)cc1	inactive: 7.88%	–
CCOc1ccc2ccccc2c1/C=N/NC(=O)CNC(=O)c1ccccc1O	inactive: 10.5%	–
CN(C)/N=C/c1ccc(Sc2ccccc2[N+](=O)[O-])o1	inactive: 5.1%	–
CS(=O)(=O)Nc1ccc(C(=O)NCCc2ccccc2)cc1	inactive: -10.8%	–
Cc1ccccc1CN(C)CC(=O)Nc1c(C)cccc1C(C)C	inactive: 1.69%	–
CCn1cc([C@@H]2C[C@H]3CN(Cc4cccc(Cl)c4)C(=O)[C@]34CCCN24)c(C)n1	inactive: -7.18%	–
Cn1cc(Cl)c(C(=O)OCC(=O)Nc2cccc(Cl)c2)n1	inactive: 0.0281%	–
COc1cc(OC)c(OC)cc1/C=C1\Oc2cc(OS(C)(=O)=O)ccc2C1=O	inactive: -5.36%	–
CC(=O)c1ccc(C(=O)N2CCC(CO)(Cc3cccc(C(F)(F)F)c3)CC2)cc1	inactive: 13.8%	–
O=C(N/C(=C/c1ccco1)C(=O)N1CCCCCC1)c1ccccc1	inactive: 5.16%	–
O=C(C[n+]1cccc2ccccc21)c1ccccc1	inactive: 19.8%	–
O=C(CC(=O)NCc1ccc(Cl)cc1)NCc1ccc(Cl)cc1	inactive: 15.4%	–
CN(CC1CCOCC1)C(=O)CC1C(=O)NCCN1C/C=C/c1ccccc1 (centres undefined)	inactive: -1.55%	–
Cc1ccc(NC(=O)CNCc2ccccc2)cc1Br	inactive: -9.5%	–
CCn1c(SCCN2CCCCC2)nc2c1c(=O)n(C)c(=O)n2C	inactive: 0.763%	–
CSc1nnc(CNS(=O)(=O)c2ccc(F)cc2)n1C	inactive: 25.9%	–
O=C(COC(=O)c1cc(=O)[nH]c2ccccc12)NC1CCCC1	inactive: -3.66%	–

SMILES	growth rescue (activation)	Potency
CC1(C(=O)NS(=O)(=O)c2cccc(C#N)c2)CCN1C(=O)c1ccccc1 (centres undefined)	inactive: 13.7%	–
CCOC(=O)C1CCN(c2ccc(C(=O)O)cc2[N+](=O)[O-])CC1	inactive: 18.7%	–
Cc1ccc2cc3cc(C(=O)NCCC(C)C)oc3nc2c1	inactive: 21.4%	–
O=C(NC(=S)Nc1ccccc1C(=O)O)c1ccc2ccccc2c1	inactive: 26.5%	–
COc1ccc(NC(=O)CN2C(=O)NC3(CCCC3)C2=O)cc1OC	inactive: -13.8%	–
COc1ccccc1-c1ccc2c(c1)C(C)(Cc1ccc(Cl)c(Cl)c1)C(=O)N2 (centres undefined)	inactive: -15.8%	–
CSc1nc(Oc2ccc(F)cc2)c2ccccc2n1	inactive: 15.3%	–
O=C(Nc1ccc(Cl)c(S(=O)(=O)N2CCOCC2)c1)c1cc2ccccc2oc1=O	inactive: 17.4%	–
CCCn1c(SCC(=O)N2c3ccccc3Sc3ccccc32)nc2ccccc21	inactive: 22.7%	–
CSc1cccc(NC(=S)N(CCN(C)C)C(C)c2ccccn2)c1 (centres undefined)	inactive: -0.447%	–
NC(c1csc(NC(=O)Nc2ccccc2Oc2ccccc2)n1)c1ccccc1Cl (centres undefined)	inactive: 15.7%	–
O=C(Nc1ccccc1F)C1CCN(S(=O)(=O)c2cccc3nonc23)CC1	inactive: 7.75%	–
COCCn1c(Cc2cccn2C)nnc1SCC(=O)Nc1nccs1	inactive: -0.404%	–
Cc1ccc(C(=O)COC(=O)CCC(=O)Nc2ccccc2Cl)cc1[N+](=O)[O-]	inactive: 10.4%	–
CC(=O)c1cccc(NC(=O)CN2C(=O)NC(C)(C)C2=O)c1	inactive: 20.1%	–
Cc1ccc(OC(C)C(=O)N2CC(=O)Nc3ccccc32)c(C)c1 (centres undefined)	inactive: -0.412%	–
Cc1ccccc1C(=O)c1cccn1CC(=O)NCc1ccc(Cl)cc1	–	inactive
COc1ccc(S(=O)(=O)N2CCCCC2)cc1NC(=O)CCNC(=O)c1ccc(Cl)cc1	inactive: 12.5%	–
COc1ccc(Cl)cc1-n1c(C)cc(C(=O)OCC(=O)N2CC(=O)Nc3ccccc32)c1C	inactive: 2.37%	–
O=C(OCC(=O)N1CCC(Cc2ccccc2)CC1)c1ccccc1O	inactive: -3.83%	–
O=C(Nc1ccc2c(c1)OCO2)N1CCC(CO)(CC2CCCCO2)CC1 (centres undefined)	inactive: 6.25%	–
CC(=O)Nc1ccc(NC(=O)COc2cccc3c2OC(C)(C)C3)cc1	inactive: 4.69%	–

SMILES	growth rescue (activation)	Potency
COc1ccc(-n2c(SCC(=O)NCc3cccs3)nnc2-c2ccoc2C)cc1	inactive: 8.52%	–
O=C(CN1CCCc2ccccc21)Nc1cccc(S(=O)(=O)N2CCOCC2)c1	inactive: 12.2%	–
COc1ccc(CCc2nnc(CCC(=O)NCc3cc(C(C)C)no3)o2)cc1	inactive: 6.41%	–
O=C(O)C(Cc1c[nH]c2ccccc12)NS(=O)(=O)c1ccc(Br)cc1 (centres undefined)	inactive: 11.4%	–
Cc1cc(NC(=O)CCC(=O)N(CC(=O)NC2CCCC2)c2ccc(F)c(Cl)c2)no1	inactive: -5.03%	–
Cc1ccc(N(CC(=O)NC(C)(C)C)C(=O)CNC(=O)c2cccs2)c(C)c1	inactive: 0.551%	–
Cc1c(Br)c(C(F)(F)F)nn1CC(=O)N(C)C1CCCCC1	inactive: 9.06%	–
O=C(O)CC(C(=O)Nc1ccc(F)cc1)C1CCCO1 (centres undefined)	inactive: -19.4%	–
CCOC(=O)C1(C)/C(=N/Nc2ccccc2OC)C(=O)C(=O)N1c1ccccc1 (centres undefined)	inactive: 23.5%	–
O=C(O)CCC(=O)N1N=C(c2ccc(Br)cc2)CC1c1ccc(Br)cc1 (centres undefined)	inactive: 11.5%	–
O=C(O)c1cc(NC(=O)c2ccc3c(c2)C(=O)N(Cc2ccccc2)C3=O)cc(C(=O)O)c1	inactive: 12.1%	–
S=c1sc(SCCOc2ccccc2)nn1-c1ccccc1	inactive: 25.8%	–
CCOC(=O)C1CCN(C(=O)c2ccccc2NC(=O)c2ccc(Cl)cc2)CC1	inactive: 1.45%	–
Cc1ccc(C(NC(=O)C2CCCCC2)c2c(O)ccc3ccccc23)cc1 (centres undefined)	inactive: 18.2%	–
O=C(O)c1ccc(N2CCOCC2)c(N2C(=O)C3C4C=CC(C4)C3C2=O)c1 (centres undefined)	inactive: 11.8%	–
CCOc1ncccc1C(=O)OCc1ccc(C(=O)OC)cc1	inactive: 25.8%	–
O=C1NC(NS(=O)(=O)c2ccc(Cl)cc2)(C(F)(F)F)C(=O)N1c1ccccc1 (centres undefined)	inactive: 7.02%	–
C#CC[N+](C)(C)CCCCCCCCCC	inactive: 7.37%	–
Cc1[nH]n(-c2ccc(Cl)c(Cl)c2)c(=O)c1CCO	inactive: 11.4%	–
CSc1nc(C)cc(Oc2ccc(=O)[nH]n2)n1	inactive: 7.86%	–
CCN(CC)S(=O)(=O)c1cccc(NC(=O)COc2ncnc3sccc23)c1	inactive: 1.28%	–
